# Experimental data from the supplement of paper PMC3334620.
# The full ranking holds about 33,000 sequences; the median of “E-score (-0.5 to 0.5)” is about -0.011, and the highest 2% start at about 0.28. The list shows a part of the results.
# Target: T1, Gcr1 (UniProt P07261)
# T1 sequence: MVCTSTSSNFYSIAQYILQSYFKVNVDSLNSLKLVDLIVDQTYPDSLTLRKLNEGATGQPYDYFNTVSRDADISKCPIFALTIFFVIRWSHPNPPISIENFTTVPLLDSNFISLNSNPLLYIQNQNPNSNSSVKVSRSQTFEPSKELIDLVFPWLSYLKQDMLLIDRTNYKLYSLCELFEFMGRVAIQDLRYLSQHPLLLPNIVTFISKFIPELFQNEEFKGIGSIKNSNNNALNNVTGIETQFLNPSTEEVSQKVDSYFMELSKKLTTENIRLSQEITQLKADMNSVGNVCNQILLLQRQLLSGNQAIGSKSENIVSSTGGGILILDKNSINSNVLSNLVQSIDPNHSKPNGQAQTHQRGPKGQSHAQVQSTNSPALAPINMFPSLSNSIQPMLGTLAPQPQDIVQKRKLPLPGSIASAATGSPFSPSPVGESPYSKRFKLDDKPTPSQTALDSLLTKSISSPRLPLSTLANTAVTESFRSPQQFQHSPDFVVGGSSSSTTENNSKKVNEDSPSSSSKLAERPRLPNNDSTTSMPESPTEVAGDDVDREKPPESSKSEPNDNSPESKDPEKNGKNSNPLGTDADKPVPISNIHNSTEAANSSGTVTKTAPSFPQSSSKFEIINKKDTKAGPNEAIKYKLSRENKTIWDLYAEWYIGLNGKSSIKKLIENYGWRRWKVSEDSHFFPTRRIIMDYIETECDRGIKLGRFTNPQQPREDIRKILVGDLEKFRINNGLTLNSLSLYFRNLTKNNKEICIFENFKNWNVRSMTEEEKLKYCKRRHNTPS
# Experiment: PBM E-score (8-mer binding enrichment) (E-score (-0.5 to 0.5)); higher = stronger / more preferred TF binding; most listed sequences are background and not binding sites
# Settings: protein concentration: 100 nM; construct: GST-full length
# Procedure, shortened: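 Universal all-10-mer Agilent arrays, fresh or stripped once, were converted to double-stranded form by primer extension. GST-tagged yeast transcription factors from PURExpress in vitro transcription/translation, full-length or DNA-binding domain only, were applied at about 100-200 nM and detected with fluorescent anti-GST. After masliner normalisation, the Universal PBM Analysis Suite scored each ungapped eight-base word together with its reverse complement by E-score.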
row,Sequence,PBM E-score
1,TACGTAGA,0.0104
2,ACAGCTCA,-0.146
3,GGATATAC,0.0934
4,CGGCGTTA,-0.13
5,ATCATAAT,0.0389
6,AACGCCTT,-0.0116
7,CAGCTCAA,-0.13
8,ATTTGGCC,-0.118
9,AAGTATTC,-0.0309
10,AGAGTGCT,-0.131
11,CTCGGTTC,-0.183
12,CAGATGCG,0.108
13,TTCGGCAA,0.119
14,CGCAACGA,-0.141
15,ATTTCAGA,-0.032
16,AACTTCGG,-0.0312
17,GTTTCATA,0.102
18,CCACAAAC,0.19
19,GCCCGTAC,-0.121
20,AGCCCTCA,-0.0713
21,GTTGAACA,-0.125
22,GGTCCCCA,0.268
23,TAAGAAAA,0.147
24,CGTTCCAA,0.03
25,CTCAAAAA,0.0947

row,Sequence,PBM E-score
1,AAACTAGG,0.0785
2,ATTTCGGG,0.0915
3,AAAGGGAC,-0.169
4,CGCTACGC,-0.0843
5,ACGCTCAT,-0.126
6,GGTCTGCA,-0.00311
7,CTCTGTCA,-0.0979
8,CTAAAGGC,-0.113
9,GGGCATAC,-0.285
10,CGTTTTTA,0.0759
11,CCTAGTGA,0.0612
12,ATTCAGAC,0.0209
13,CTACGATC,0.126
14,ACAATTGC,-0.0244
15,ACATTTAC,-0.0137
16,CGGCGTAG,-0.15
17,ACCGGGTC,0.0249
18,ACTGGTAT,0.241
19,ACTCGACA,0.0696
20,CTTTATAA,0.171
21,GACTCGGA,-0.138
22,CCATTTCG,0.0427
23,CCACCCTA,0.0045
24,GGGCGCCA,0.403
25,GGTCTGAC,-0.327

row,Sequence,PBM E-score
1,CTGTCCAA,-0.0328
2,CGAAAGTA,-0.00293
3,CTTACTTC,-0.0902
4,CTCGGTTA,-0.0228
5,ACGGAAGG,-0.165
6,TCTTGTAA,0.231
7,CACCTGGA,0.225
8,CCATTTAG,0.0199
9,ATCCTGGG,0.158
10,AACATAAC,-0.0858
11,CCGATTAG,0.0563
12,GAAAGGTA,0.0356
13,GCGTGCCC,-0.142
14,AGATGCTG,0.282
15,TCAAGCCA,-0.194
16,CTCCGGGC,-0.0116
17,CCCCGAGC,-0.156
18,CTATCAAA,0.119
19,GATGCTCC,0.0373
20,TCGGCGCA,-0.177
21,GCAGCTGC,0.249
22,CTAGTGTA,0.127
23,AAAAACCC,0.0302
24,CCTAGAGA,-0.145
25,CCTACGAG,-0.253

row,Sequence,PBM E-score
1,CTGGTGCA,0.216
2,CATGACTC,-0.185
3,CAGAGCAA,0.0409
4,CCGGAACC,0.325
5,ATAGGTGA,0.0207
6,CTACTCGC,-0.0521
7,TGCTGCAA,0.209
8,CCGACCAG,-0.107
9,ATCCCCGC,0.244
10,AAGCCAGG,-0.216
11,GATTATAC,-0.0491
12,GCCCATAC,-0.0322
13,AAATCTAT,0.233
14,CTGTGATC,-0.0288
15,ACCGGAAA,0.177
16,GGATTTAA,0.0302
17,TCCCCCAA,-0.0523
18,TGGCGGAA,0.0594
19,CATACGTC,0.018
20,GTCTTAAA,0.0994
21,ACCGCGCC,-0.0703
22,CACGAAAG,-0.159
23,AGTGAACC,-0.127
24,TATAGCAA,-0.0222
25,CAGAAGTC,0.133

row,Sequence,PBM E-score
1,CTTTAATC,0.0588
2,CAAGGGAA,-0.175
3,GACTGTCA,-0.154
4,GACACCAA,0.0543
5,CTGTCCCC,-0.063
6,ACCGGCCT,-0.153
7,AACCTTGA,-0.0838
8,CGCCGGAA,0.195
9,CAGCCAGC,-0.158
10,ATAAGACC,-0.0977
11,GGCGTCCC,0.362
12,ATAATCTA,0.0161
13,CGCCCTAA,0.189
14,ATGGTACG,-0.0261
15,GGTCTCAC,-0.209
16,CCCACGGA,-0.0507
17,AGATTAAT,0.0373
18,AAGGGTGT,-0.0439
19,TAGAGCTA,-0.222
20,AACGAGAG,-0.143
21,CTTTGTTC,-0.0308
22,AATACGGA,0.143
23,GGCGCCTA,0.385
24,CGAACTTC,0.136
25,CAAAGCGA,0.206

row,Sequence,PBM E-score
1,CCTTGCTC,-0.14
2,CATGATAG,0.00598
3,AATTCGTG,0.135
4,ATGCACAC,-0.234
5,CGATGTAC,-0.123
6,CCGTTCCG,-0.159
7,ACAAGCAA,-0.121
8,AAGGACGG,-0.211
9,CAGCCTGC,-0.276
10,CTAAGCGC,-0.0177
11,GTCTGAAA,0.103
12,AACCGTAA,0.0496
13,CAGATTAA,0.156
14,GAATAATC,0.139
15,CTCGGACC,-0.0591
16,GTCTACAA,-0.0669
17,AGACCCAG,-0.106
18,ACCCGCCA,-0.131
19,AGCTGCCG,0.289
20,ACCCCAGA,-0.0029
21,CTAACAAC,0.00805
22,GACTAAAA,0.0645
23,AACTTACC,-0.0965
24,ACGTATAG,-0.0327
25,ATGCGCAG,-0.0831

row,Sequence,PBM E-score
1,ATAGGATA,-0.0284
2,AGTCCCTA,-0.106
3,GGGTCAAA,-0.121
4,GTTTCCAA,0.11
5,CCAAACCC,-0.071
6,AACAGGCC,-0.0784
7,ATGTAATG,0.164
8,TTCAGAAA,0.12
9,CAAGCCTC,-0.0336
10,GGAGCAAA,-0.0648
11,CGGGGCGC,0.0571
12,ACGGCGGG,-0.0383
13,TAAAATCA,-0.196
14,CGACCGCC,-0.24
15,CGGGCACA,-0.0928
16,GCCGATAA,-0.197
17,CTCCAGGA,0.127
18,AACATGTT,0.106
19,CACGGAGA,-0.141
20,CGAATATA,0.00705
21,CGATCAGA,-0.117
22,AGTACTTG,-0.0446
